From the supplement of paper PMC10037445
Several values for one entry are separate records, joined by “and”; a condition that tells them apart may be missing. Equal values may be shown once. Whole data set: some 2,900 compounds, median “NF-kB SEAP reporter activity, fold change vs agonist alone” near 0.99, cut for the highest 2% near 2.6. Some of the results follow.

Legend:
RAW-Dual [1] = test: NF-kB SEAP reporter activity, fold change vs agonist alone; cytotoxicity flag (confluency mask): not cytotoxic; higher = enhanced NF-kB activity
Summary of the method: (§1)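 Library stock was pin-tooled at 50 nL into 384-well plates of RAW-Dual macrophages (50,000 cells/well, DMEM), followed 1 h later by a PRR agonist, and the cells were kept at 37 °C, 5% CO2. Supernatant collected after 20 hours was read for IRF by QuantiLuc luminescence and for NF-κB by QuantiBlue absorbance at 620 nm. Reporter activity is fold change over agonist-alone wells, and a well counted as cytotoxic when its IncuCyte confluency was below 70% of agonist controls in both mask sets.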

RAW-Dual [2] = test: NF-kB SEAP reporter activity, fold change vs agonist alone; higher = enhanced NF-kB activity; conditions: library stock concentration (final ~1000-fold dilution): 10 mM
Summary of the method: as §1

RAW-Dual [3] = test: NF-kB SEAP reporter activity, fold change vs agonist alone; cytotoxicity flag (confluency mask): cytotoxic (confluency <70% of control); higher = enhanced NF-kB activity
Summary of the method: as §1

[4] = agonist: ODN 1826 (TLR9) 0.5 ug/mL
[5] = agonist: Pam2CSK4 (TLR2/6) 0.1 ug/mL
[6] = agonist: Pam3CSK4 (TLR2/1) 0.1 ug/mL
[7] = cytotoxicity flag (confluency mask): not cytotoxic, agonist: Imiquimod (TLR7) […]
[8] = cytotoxicity flag (confluency mask): not cytotoxic, agonist: MPLA (TLR4) […]

Compound: COc1cc2ncnc(Nc3ccc(Oc4ccccc4)cc3C)c2cc1OC.Cl (library stock concentration (final ~1000-fold dilution): 10 mM)
- NF-kB SEAP reporter activity (RAW-Dual [1]; agonist: LPS (TLR4) 0.1 ug/mL): 1.05
- NF-kB SEAP reporter activity (RAW-Dual [1]; [4]): 0.422
- NF-kB SEAP reporter activity (RAW-Dual [1]; [5]): 0.297
- NF-kB SEAP reporter activity (RAW-Dual [1]; [6]): 0.42

Compound: COc1cc2ncnc(Nc3ccc(Oc4ccccc4)cc3C)c2cc1OC.Cl
- NF-kB SEAP reporter activity (RAW-Dual [2]; [7]): 1.37
- NF-kB SEAP reporter activity (RAW-Dual [2]; [8]): 0.792

Compound: Cc1cccc(-c2n[nH]cc2-c2ccc3ncccc3n2)n1 (library stock concentration (final ~1000-fold dilution): 10 mM)
- NF-kB SEAP reporter activity (RAW-Dual [1]; agonist: LPS (TLR4) 0.1 ug/mL): 2.27
- NF-kB SEAP reporter activity (RAW-Dual [1]; [4]): 1.58
- NF-kB SEAP reporter activity (RAW-Dual [1]; [5]): 1.1
- NF-kB SEAP reporter activity (RAW-Dual [1]; [6]): 1.61

Compound: Cc1cccc(-c2n[nH]cc2-c2ccc3ncccc3n2)n1
- NF-kB SEAP reporter activity (RAW-Dual [2]; [7]): 1.16
- NF-kB SEAP reporter activity (RAW-Dual [2]; [8]): 1.79

Compound: Cc1ccc(-c2c(-c3nn(C)c4ncnc(N5CCC(N6CCCCC6)C5)c34)cnn2C)cc1 (configuration not stated)
- NF-kB SEAP reporter activity (RAW-Dual [2]; [7]): 0.947
- NF-kB SEAP reporter activity (RAW-Dual [2]; [8]): 1.09

Compound: Cc1ccc(-c2c(-c3nn(C)c4ncnc(N5CCC(N6CCCCC6)C5)c34)cnn2C)cc1 (configuration not stated) (library stock concentration (final ~1000-fold dilution): 10 mM)
- NF-kB SEAP reporter activity (RAW-Dual [1]; agonist: LPS (TLR4) 0.1 ug/mL): 1.57
- NF-kB SEAP reporter activity (RAW-Dual [1]; [4]): 0.856
- NF-kB SEAP reporter activity (RAW-Dual [1]; [5]): 1.21
- NF-kB SEAP reporter activity (RAW-Dual [1]; [6]): 1.16

Compound: CN1CCC(c2c(O)cc(O)c3c(=O)cc(-c4ccccc4Cl)oc23)C1CO.Cl (configuration not stated)
- NF-kB SEAP reporter activity (RAW-Dual [2]; cytotoxicity flag (confluency mask): cytotoxic (confluency <70% of control), agonist: Imiquimod (TLR7) […]): 0.313
- NF-kB SEAP reporter activity (RAW-Dual [2]; cytotoxicity flag (confluency mask): cytotoxic (confluency <70% of control), agonist: MPLA (TLR4) […]): 0.654

Compound: CN1CCC(c2c(O)cc(O)c3c(=O)cc(-c4ccccc4Cl)oc23)C1CO.Cl (configuration not stated) (library stock concentration (final ~1000-fold dilution): 10 mM)
- NF-kB SEAP reporter activity (RAW-Dual [3]; agonist: LPS (TLR4) 0.1 ug/mL): 0.291
- NF-kB SEAP reporter activity (RAW-Dual [3]; [4]): 0.258
- NF-kB SEAP reporter activity (RAW-Dual [3]; [5]): 0.0831
- NF-kB SEAP reporter activity (RAW-Dual [3]; [6]): 0.15

Compound: Cc1cc(-c2ccnc3cc(O)ccc23)ccc1O (library stock concentration (final ~1000-fold dilution): .1 mM)
- NF-kB SEAP reporter activity (RAW-Dual [1]; agonist: LPS (TLR4) 0.1 ug/mL): 3.3

Compound: COc1cc2c(cc1OC)-c1cc3ccc4c(c3c[n+]1CC2)OCO4 (library stock concentration (final ~1000-fold dilution): 10 mM)
- NF-kB SEAP reporter activity (RAW-Dual [1]; agonist: LPS (TLR4) 0.1 ug/mL): 1.04 and 1.03
- NF-kB SEAP reporter activity (RAW-Dual [1]; [4]): 1.06 and 0.845
- NF-kB SEAP reporter activity (RAW-Dual [1]; [5]): 1.13 and 1.06
- NF-kB SEAP reporter activity (RAW-Dual [1]; [6]): 0.986 and 1.09

Compound: CCc1cccc2c3c([nH]c12)C(CC)(CC(=O)O)OCC3 (configuration not stated)
- NF-kB SEAP reporter activity (RAW-Dual [2]; [7]): 0.875
- NF-kB SEAP reporter activity (RAW-Dual [2]; [8]): 1.13

Compound: CCc1cccc2c3c([nH]c12)C(CC)(CC(=O)O)OCC3 (configuration not stated) (library stock concentration (final ~1000-fold dilution): 10 mM)
- NF-kB SEAP reporter activity (RAW-Dual [1]; agonist: LPS (TLR4) 0.1 ug/mL): 1.03
- NF-kB SEAP reporter activity (RAW-Dual [1]; [4]): 0.896
- NF-kB SEAP reporter activity (RAW-Dual [1]; [5]): 1.02
- NF-kB SEAP reporter activity (RAW-Dual [1]; [6]): 1.06

Compound: O=C1CC(c2c[nH]c3ccc(F)cc23)C(=O)N1 (configuration not stated)
- NF-kB SEAP reporter activity (RAW-Dual [2]; [7]): 0.946
- NF-kB SEAP reporter activity (RAW-Dual [2]; [8]): 1.03

Compound: O=C1CC(c2c[nH]c3ccc(F)cc23)C(=O)N1 (configuration not stated) (library stock concentration (final ~1000-fold dilution): 10 mM)
- NF-kB SEAP reporter activity (RAW-Dual [1]; agonist: LPS (TLR4) 0.1 ug/mL): 1.08
- NF-kB SEAP reporter activity (RAW-Dual [1]; [4]): 0.919
- NF-kB SEAP reporter activity (RAW-Dual [1]; [5]): 1.09
- NF-kB SEAP reporter activity (RAW-Dual [1]; [6]): 1.17

Compound: CC(C)=CC(C)C[C@](C)(O[C@@H]1O[C@H](CO)[C@@H](O)[C@H](O)[C@H]1O)[C@H]1CC[C@]2(C)C3CCC4C(C)(C)C(O[C@@H]5O[C@H](CO)[C@@H](O)[C@H](O)[C@H]5O[C@@H]5O[C@H](CO)[C@@H](O)[C@H](O)[C@H]5O)CC[C@]4(C)C3C[C@H](O)[C@@H]12 (some centres not stated)
- NF-kB SEAP reporter activity (RAW-Dual [2]; [7]): 0.936
- NF-kB SEAP reporter activity (RAW-Dual [2]; [8]): 1.05

Compound: CC(C)=CC(C)C[C@](C)(O[C@@H]1O[C@H](CO)[C@@H](O)[C@H](O)[C@H]1O)[C@H]1CC[C@]2(C)C3CCC4C(C)(C)C(O[C@@H]5O[C@H](CO)[C@@H](O)[C@H](O)[C@H]5O[C@@H]5O[C@H](CO)[C@@H](O)[C@H](O)[C@H]5O)CC[C@]4(C)C3C[C@H](O)[C@@H]12 (some centres not stated) (library stock concentration (final ~1000-fold dilution): 10 mM)
- NF-kB SEAP reporter activity (RAW-Dual [1]; agonist: LPS (TLR4) 0.1 ug/mL): 1.18
- NF-kB SEAP reporter activity (RAW-Dual [1]; [4]): 1.06
- NF-kB SEAP reporter activity (RAW-Dual [1]; [5]): 1.04
- NF-kB SEAP reporter activity (RAW-Dual [1]; [6]): 1.04
